Measured values as given in the supplement of paper PMC9446081.
Screen size: about 39,000 compounds; about 220 (0.56%) showed activity. The list shows a part of the results.
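Also: static incubation at 37 °C against the wild-type strain, values averaged over two biological replicates.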

What follows are molecules tested on Escherichia coli K-12 BW25113 (assay: relative growth (OD600 normalised to plate interquartile mean) (fraction); higher = less growth inhibition, active = 0.2 or less). Conditions: 50 µM; LB; incubation time: overnight (16-24 h).
`CN(C)CCCNC(=O)C[C@@H]1CC[C@H]2[C@@H](COc3ccc(NC(=O)c4ccccc4F)cc3C(=O)N2C)O1` was tested, and the relative growth was inactive: 0.983.
With `Cc1noc(C)c1S(=O)(=O)Nc1ccc2c(c1)C(=O)N([C@H](C)CO)C[C@@H](C)[C@@H](CN(C)CC1CC1)O2` the relative growth was inactive: 0.989.
In the case of `C[C@@H]1CN([C@H](C)CO)C(=O)c2cc(NC(=O)C3CCCCC3)ccc2O[C@@H](C)CCCCO[C@@H]1CN(C)Cc1ccccc1`, the relative growth is reported as inactive: 0.872.
With `O=C(NC1Cc2ccccc2C1)[C@@H]1[C@@H](CO)[C@@H]2Cn3c(cccc3=O)[C@@H]2N1C(=O)c1cnccn1` the relative growth was inactive: 0.983.
In the case of `C[C@H](CO)N1C[C@H](C)[C@@H](CN(C)CC2CC2)OCCCC[C@H](C)Oc2ccc(NS(C)(=O)=O)cc2C1=O`, the relative growth is reported as inactive: 0.981.
In the case of `CC(C)NC(=O)N(C)C[C@@H]1Oc2ccc(NS(=O)(=O)c3ccccc3)cc2CC(=O)N([C@H](C)CO)C[C@@H]1C`, the relative growth is reported as inactive: 0.996.
In the case of `CN(C)CCNc1cn[nH]c(=O)c1Cl`, the relative growth is reported as inactive: 1.04.
`C[C@@H]1CN([C@H](C)CO)S(=O)(=O)c2ccc(C#C[C@@H](C)O)cc2O[C@H]1CN(C)C(=O)C1CCCCC1` was tested, and the relative growth was inactive: 0.985.
For `CNC[C@H]1Oc2ccc(NS(=O)(=O)c3cn(C)cn3)cc2CC(=O)N([C@H](C)CO)C[C@H]1C`, the relative growth was inactive: 0.981.
`COCC#Cc1ccc([C@@H]2[C@H]3CN(C(=O)CN4CCOCC4)CC(=O)N3[C@H]2CO)cc1` was tested, and the relative growth was inactive: 1.01.
In the case of `O=C(O)CC1CCOCC1`, the relative growth is reported as inactive: 0.982.
`C[C@H]1CN([C@@H](C)CO)C(=O)Cc2cc(NC(=O)Nc3cccc4ccccc34)ccc2O[C@@H]1CN(C)Cc1ccc2c(c1)OCO2` was tested, and the relative growth was inactive: 1.02.
`COc1ccc([Si](C)(C)[C@@H]2[C@@H](CC(=O)N3CCC[C@H]3CO)O[C@]3(C(=O)N(Cc4ccc(N5C(=O)c6cccc7cccc5c67)cc4)c4ccccc43)[C@H]2C)cc1` was tested, and the relative growth was inactive: 1.03.
For `C[C@@H]1CCCCO[C@H](CN(C)S(=O)(=O)c2ccc(F)cc2)[C@@H](C)CN([C@H](C)CO)C(=O)c2cc(NC(=O)Nc3cccc4ccccc34)ccc2O1`, the relative growth was inactive: 1.03.
`C[C@@H]1CCCCO[C@H](CN(C)Cc2ccccc2)[C@@H](C)CN([C@@H](C)CO)C(=O)c2cc(NS(=O)(=O)c3cccs3)ccc2O1` was tested, and the relative growth was inactive: 0.896.
For `CC(=O)O[C@H]1[C@H](Oc2cc(O)cc(O)c2C(=O)c2cc(O)cc(O)c2)O[C@H](CO)[C@@H](OC(=O)c2ccccc2)[C@@H]1O`, the relative growth was inactive: 1.
For `COCCOC(=O)N1C(=O)[C@@]2(c3cc(C#Cc4ccc(OC)cc4)ccc31)[C@H](c1ccc(OCCO)cc1)N1[C@H](c3ccccc3)[C@H](c3ccccc3)OC(=O)[C@H]1[C@@H]2C(N)=O`, the relative growth was inactive: 1.09.
`Cc1noc(C)c1NC(=O)N(C)C[C@@H]1OCCCC[C@@H](C)Oc2ccc(NC(=O)C3CCCCC3)cc2C(=O)N([C@H](C)CO)C[C@H]1C` was tested, and the relative growth was inactive: 0.963.
`C[C@@H]1CN([C@H](C)CO)C(=O)Cc2cc(NS(=O)(=O)c3ccc(Cl)cc3)ccc2O[C@H]1CN(C)Cc1ccc(Cl)c(Cl)c1` was tested, and the relative growth was inactive: 0.976.
In the case of `O=C1N[C@@H]2[C@@H](O)[C@@H](O)[C@H](O)[C@@H](CO)N2C1=O`, the relative growth is reported as inactive: 0.983.
For `C[C@@H]1CCCCO[C@@H](CN(C)Cc2ccc(C(=O)Nc3ccccc3N)cc2)[C@@H](C)CN([C@H](C)CO)C(=O)c2cc(NC(=O)Nc3cccc4ccccc34)ccc2O1`, the relative growth was inactive: 1.01.
In the case of `C[C@@H]1CCCCO[C@H](CN(C)C(=O)CCC(F)(F)F)[C@H](C)CN([C@H](C)CO)C(=O)c2cc(NS(=O)(=O)c3ccc(F)cc3)ccc2O1`, the relative growth is reported as inactive: 1.
In the case of `C[C@H](CO)N1C[C@H](C)[C@H](CN(C)S(=O)(=O)c2ccc(F)cc2)Oc2c(NS(=O)(=O)c3cn(C)cn3)cccc2C1=O`, the relative growth is reported as inactive: 0.988.
With `C[C@@H]1CN([C@H](C)CO)C(=O)c2cccc(NC(=O)Nc3cccc4ccccc34)c2O[C@@H]1CN(C)C(=O)NC1CCCCC1` the relative growth was inactive: 1.02.
With `c1ccc(Oc2cccc(Oc3ccccc3)c2)cc1` the relative growth was inactive: 0.931.
`COc1ccc(S(=O)(=O)Nc2ccc3c(c2)C(=O)N([C@@H](C)CO)C[C@@H](C)[C@H](CN(C)C(=O)CCC(F)(F)F)OCCCC[C@H](C)O3)cc1` was tested, and the relative growth was inactive: 1.
For `Cc1cc(C)cc(OCC2CNC(=O)O2)c1` (stereo not given), the relative growth was inactive: 1.13.
In the case of `C[C@@H]1CN([C@@H](C)CO)C(=O)c2cc(NC(=O)Nc3ccc(C(F)(F)F)cc3)ccc2O[C@H]1CN(C)S(C)(=O)=O`, the relative growth is reported as inactive: 0.942.
With `Cc1noc(C)c1NC(=O)N(C)C[C@H]1Oc2c(NC(=O)c3ccc(-c4nccs4)cc3)cccc2C(=O)N([C@H](C)CO)C[C@H]1C` the relative growth was inactive: 0.957.
In the case of `NCC[C@H]1CC[C@@H](NC(=O)C2CCCC2)[C@H](CO)O1`, the relative growth is reported as inactive: 0.987.
For `COc1ccc(CN(C)C[C@@H]2Oc3c(NC(=O)c4ccc(-c5nccs5)cc4)cccc3C(=O)N([C@@H](C)CO)C[C@H]2C)cc1`, the relative growth was inactive: 1.02.
For `C[C@@H]1CN([C@H](C)CO)C(=O)c2cc(NC(=O)NC3CCCCC3)ccc2O[C@@H](C)CCCCO[C@@H]1CN(C)CC1CCCCC1`, the relative growth was inactive: 1.01.
For `C[C@H]1CCCCO[C@@H](CN(C)CC2CCCCC2)[C@@H](C)CN([C@@H](C)CO)C(=O)c2cc(NS(=O)(=O)c3cccs3)ccc2O1`, the relative growth was inactive: 0.998.
For `O=C1O[C@@H](c2ccccc2)[C@@H](c2ccccc2)N2[C@@H](c3ccc(O)cc3)[C@]3(C(=O)Nc4ccccc43)[C@@H](C(=O)Nc3nc4ccccc4s3)[C@H]12`, the relative growth was inactive: 1.01.
With `Cc1noc(C)c1NC(=O)N(C)C[C@H]1OCCCC[C@@H](C)Oc2ccc(NS(=O)(=O)c3cccs3)cc2C(=O)N([C@H](C)CO)C[C@H]1C` the relative growth was inactive: 0.992.
`COc1ccc(CN(C)C[C@@H]2Oc3ccc(NS(=O)(=O)c4c(C)noc4C)cc3C(=O)N([C@@H](C)CO)C[C@H]2C)cc1` was tested, and the relative growth was inactive: 0.99.
With `CC1=NCCC2c3ccc(O)cc3NC12` (stereo not given) the relative growth was inactive: 1.07.
In the case of `[N-]=[N+]=NCc1ccccc1C[C@]1(C(=O)N2CCCCC2)N=C(c2ccc(OCCCO)cc2)O[C@H]1c1ccccc1`, the relative growth is reported as inactive: 1.02.
For `NC(=O)c1cc(S(=O)(=O)N2CCOCC2)ccc1F`, the relative growth was inactive: 1.02.
`CCCCC[C@H](O)/C=C/[C@@H]1[C@H]2C/C(=C/CCCC(=O)O)O[C@@H]2C[C@H]1O` was tested, and the relative growth was inactive: 1.01.
For `COCC(=O)Nc1ccc2c(c1)C(=O)N(C)[C@H]1CC[C@@H](CC(=O)NCc3ccc(OC)cc3)O[C@H]1CO2`, the relative growth was inactive: 0.981.
In the case of `C[C@H](CO)N1C[C@H](C)[C@H](CN(C)C(=O)NC2CCCCC2)Oc2c(NC(=O)Nc3ccc(C(F)(F)F)cc3)cccc2C1=O`, the relative growth is reported as inactive: 0.933.
With `C[C@@H]1CCCCO[C@H](CN(C)C(=O)Nc2ccc(F)cc2)[C@@H](C)CN([C@@H](C)CO)C(=O)c2cc(NS(=O)(=O)c3cccs3)ccc2O1` the relative growth was inactive: 0.995.
`C[C@H](CO)N1C[C@H](C)[C@@H](CN(C)C(=O)Nc2cccc3ccccc23)Oc2c(NC(=O)C3CCCCC3)cccc2C1=O` was tested, and the relative growth was inactive: 1.
With `COCC#Cc1ccc2c(c1)O[C@H](CN(C)C(=O)CN(C)C)[C@@H](C)CN([C@H](C)CO)S2(=O)=O` the relative growth was inactive: 1.
For `C[C@@H]1CCCCO[C@@H](CN(C)Cc2ccc3c(c2)OCO3)[C@@H](C)CN([C@H](C)CO)C(=O)c2cc(NC(=O)Nc3ccccc3)ccc2O1`, the relative growth was inactive: 0.997.
`COc1ccc(NC(=O)N(C)C[C@H]2OCCCC[C@@H](C)Oc3ccc(NS(=O)(=O)c4ccccc4)cc3C(=O)N([C@H](C)CO)C[C@H]2C)cc1` was tested, and the relative growth was inactive: 1.03.
For `O=C(C[C@@H]1CC[C@H](NC(=O)Cc2ccccn2)[C@H](CO)O1)NCCc1ccncc1`, the relative growth was inactive: 1.01.
For `C[C@@H]1CCCCO[C@H](CN(C)Cc2ccc(C(=O)Nc3ccccc3N)cc2)[C@@H](C)CN([C@H](C)CO)C(=O)c2cc(NC(=O)c3ccccc3)ccc2O1`, the relative growth was inactive: 0.993.
With `CC(C)NC(=O)N(C)C[C@H]1Oc2ccc(NS(=O)(=O)c3ccc(F)cc3)cc2CC(=O)N([C@H](C)CO)C[C@@H]1C` the relative growth was inactive: 1.01.
For `C[C@H]1CN([C@@H](C)CO)C(=O)c2cc(C#CC3(O)CCCC3)cnc2O[C@@H]1CN(C)C(=O)Cc1ccncc1`, the relative growth was inactive: 0.989.
`COc1ccc(NC(=O)Nc2ccc3c(c2)C(=O)N([C@@H](C)CO)C[C@H](C)[C@@H](CN(C)Cc2ccc4c(c2)OCO4)OCCCC[C@H](C)O3)cc1` was tested, and the relative growth was inactive: 0.994.
For `S=c1[nH]cn[nH]1`, the relative growth was inactive: 0.991.
`Cc1ccc(S(=O)(=O)N2C[C@H](O)COC[C@H]3O[C@@H](CC(=O)N4CCc5ccccc5C4)CC[C@@H]32)cc1` was tested, and the relative growth was inactive: 0.988.
With `COc1ccc(C(=O)O)c(O)c1OC` the relative growth was inactive: 1.03.
For `COc1ccc(NC(=O)Nc2ccc3c(c2)C(=O)N([C@@H](C)CO)C[C@@H](C)[C@@H](CN(C)C(=O)NC(C)C)OCCCC[C@@H](C)O3)cc1`, the relative growth was inactive: 0.98.
In the case of `COCc1cc(C)nc(N)c1C#N`, the relative growth is reported as inactive: 0.976.
With `COCC#Cc1ccc2c(c1)O[C@H](CN(C)Cc1ccc3c(c1)OCO3)[C@H](C)CN([C@H](C)CO)S2(=O)=O` the relative growth was inactive: 1.01.
For `CC12CCC(=O)C=C1CCC1C2C(O)CC2(C)C1CCC2(O)C(=O)CO` (stereo not given), the relative growth was inactive: 1.03.
With `C[C@H](CO)N1C[C@H](C)[C@@H](CN(C)C(=O)C2CCOCC2)Oc2cc(-c3ccc(F)cc3)ccc2S1(=O)=O` the relative growth was inactive: 1.01.
